# Experimental data as given in PubChem BioAssay AID504832 (National Center for Advancing Translational Sciences (NCATS), 2011).
# Out of some 310,000 compounds screened, about 18,000 (5.8%) were called active. The shares of active, inactive and inconclusive entries below differ from those in the screen. The call rests on the fitted dose curve; in most records, active means well fitted inhibition curve with a large enough effect; inconclusive means small, poorly fitted or top-dose-only effect, or another doubt; inactive means no such curve, though single readings can be large or run the other way. Potencies of inconclusive entries are left out as doubtful fits.
# Test: Primary qHTS for delayed death inhibitors of the malarial parasite plastid, 48 hour incubation
# Conditions: P. falciparum luciferase growth in erythrocytes; series mostly up to 28.7 µM
# How it was run: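 Here the parasites carry a stable luciferase gene and grow inside erythrocytes in Albumax-based RPMI medium with compound for one erythrocytic cycle. Activity is scored as loss of luminescent signal.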
# Potency means the concentration at half of the fitted maximal effect; tags describe the fitted curve by direction and shape.
row,Structure (SMILES),Potency
1,C=CCc1cccc(/C=N/NC(=O)CNc2ccccc2OC)c1O,"inconclusive [inhibitor, partial curve, poor fit]"
2,Cc1ccccc1-c1nc(CS(=O)CC(=O)N2CCC3(CC2)OCCO3)c(C)o1 (stereo not given),"inconclusive [inhibitor, partial curve, poor fit]"
3,CC1(C)CC(=O)C2=C(C1)N(c1ccc(F)cc1)C(=O)C2(O)C(F)(F)F (stereo not given),inactive
4,NC(N)=NS(=O)(=O)c1ccc(N/C=C/C(=O)c2ccc(Cl)c(Cl)c2)cc1,"inconclusive [inhibitor, single point]"
5,CNC(=S)Nc1cccc(-c2cnc3ccccc3n2)c1,inactive
6,Oc1ccc(C2CNCc3sccc32)cc1O (stereo not given),active: 13.1 µM
7,Cc1ccc(CN(C)C(=O)CN2C(=O)NC3(CCCc4ccccc43)C2=O)c(C)c1 (stereo not given),"inconclusive [inhibitor, single point]"
8,CC(=O)Nc1ccc(S(=O)(=O)NNC(=O)COc2cccc3ccccc23)cc1,inactive
9,Cc1ccc(C)c(NC(=S)NCC(c2ccccc2)N(C)C)c1 (stereo not given),"inconclusive [inhibitor, single point]"
10,Cc1cc(C(=O)OCC(=O)NCCC(C)C)c2ccccc2n1,"inconclusive [inhibitor, single point]"
11,CC(Sc1nnc(Cc2cccs2)n1C1CC1)C(=O)NC1CCS(=O)(=O)C1 (stereo not given),"inconclusive [inhibitor, single point]"
12,CCC1(c2ccc(F)cc2)NC(=O)N(CC(=O)Nc2cccc(S(=O)(=O)N3CCCCC3)c2)C1=O (stereo not given),"inconclusive [inhibitor, partial curve]"
13,COc1ccccc1-c1c(C)[nH]n2c(=O)c(Cc3ccccc3)c(C)nc12,"inconclusive [inhibitor, single point]"
14,Cc1c(N=Cc2cc(Br)cc(Br)c2O)cccc1C(=O)O,active: 11.7 µM
15,NC(=O)c1nsc(C(=O)N(c2ccccc2F)C(C(=O)NCc2ccccc2)c2ccc(O)cc2)c1N (stereo not given),"inconclusive [inhibitor, single point]"
16,CC(C)CNS(=O)(=O)c1cc(C(=O)N2CC(C)OC(C)C2)c(Cl)cc1Cl (stereo not given),"inconclusive [inhibitor, single point]"
17,COc1ccc(N(CC(=O)Nc2cc(Cl)ccc2OC)S(=O)(=O)c2c(C)noc2C)cc1,active: 10.4 µM
18,COc1ccc(NP(=O)(Oc2ccccc2OC)Oc2ccccc2OC)cc1,"inconclusive [inhibitor, partial curve, poor fit]"
19,CCOC(=O)c1sc2ncnc(N3CCN(C(=O)OCC)CC3)c2c1C,"inconclusive [inhibitor, single point]"
20,Cc1cccc(NC(=O)CNC(=O)CSc2nc(N)cc(N)n2)c1C,inactive
21,CC(C)C(c1nnnn1Cc1ccc(F)cc1)N1CCN(c2ccc(O)cc2)CC1 (stereo not given),"inconclusive [inhibitor, single point]"
22,COc1cc(CCNC(=O)c2ccccc2NC(=O)C2=C(C)OCCS2)cc(OC)c1OC,"inconclusive [inhibitor, partial curve, poor fit]"

row,Structure (SMILES),Potency
1,O=C(NCc1ccccc1)C1=C[C@@H](C2CCCCC2)C[C@@H](OCc2ccc(CO)cc2)O1,"inconclusive [inhibitor, partial curve]"
2,COc1ccc(-c2nnc3sc(-c4ccccc4OC)nn23)cc1,inactive
3,Cc1ccc(C(=O)NCC(=O)NCC(=O)OCC(=O)c2ccc(Br)cc2)cc1,inactive
4,CC(=O)Nc1ccc(Nc2c3c4c(cccc4n(C)c2=O)C(=O)c2ccccc2-3)cc1,"inconclusive [inhibitor, single point]"
5,COc1cc(OC)c(N(C)S(=O)(=O)c2cccc(C(=O)OCC(=O)NCc3ccco3)c2)cc1Cl,"inconclusive [inhibitor, partial curve]"
6,CCC(Sc1nc2c(c(=O)[nH]1)CCC2)C(=O)Nc1cccc(OC)c1 (stereo not given),"inconclusive [inhibitor, single point]"
7,COc1ccc(N2CCN(S(=O)(=O)c3cc(-c4cc(C)no4)ccc3C(C)C)CC2)cc1,"inconclusive [inhibitor, single point]"
8,COCCOC(=O)C(C#N)c1nc2ccccc2nc1N1CCCC1 (stereo not given),"inconclusive [inhibitor, single point]"
9,Cc1cccc2c(=O)c(C(=O)NCc3ccc(F)cc3)c[nH]c12,"inconclusive [inhibitor, single point]"
10,O=S(=O)(CS(=O)(=O)c1ccc(Cl)cc1)c1ccc(Cl)cc1,inactive
11,CCOc1cc(/C=N/NC(=O)CN2CCOCC2)ccc1OCc1ccc(Cl)cc1,"inconclusive [inhibitor, partial curve]"
12,CCOc1ccc(N2CC(C(=O)NCCc3ccc(OC)c(OC)c3)CC2=O)cc1 (stereo not given),"inconclusive [inhibitor, partial curve]"
13,Cc1c(C(=O)NC(C)CCc2ccccc2)cccc1[N+](=O)[O-] (stereo not given),"inconclusive [inhibitor, full curve, poor fit]"
14,NNC(=O)CN1C(=O)CN=C(c2ccccc2)c2cc(Br)ccc21,"inconclusive [inhibitor, partial curve, poor fit]"
15,O=C(CCc1nnc(CCc2c[nH]c3ccccc23)o1)NC1CCC1,inactive
16,O=C(NCCN1CCc2ccccc2C1)C1CCN(S(=O)(=O)N2CCCCC2)CC1,"inconclusive [inhibitor, partial curve]"
17,O=S(=O)(NCCCN1CCOCC1)c1ccc2ccccc2c1,"inconclusive [inhibitor, single point]"
18,Cc1ccc(CCNC(=O)C2CCN(S(=O)(=O)c3ccc4c(c3)NC(=O)C(C)S4)CC2)cc1 (stereo not given),"inconclusive [inhibitor, full curve, poor fit]"
19,Nc1nc(NCc2ccco2)nc(NCCO)c1[N+](=O)[O-],"inconclusive [inhibitor, partial curve, poor fit]"
20,CC(C)CC(NC(=O)/C(=C/c1ccco1)NC(=O)c1ccc(Br)o1)C(=O)O (stereo not given),inactive
21,C=C(C)COc1ccc(-c2n[nH]c(C)c2-c2ccc(OC)cc2)c(O)c1,"inconclusive [inhibitor, partial curve]"
22,Cc1ccc2nc(-c3ccc(NC(=O)Cc4cccs4)cc3)[nH]c2c1,"inconclusive [inhibitor, single point]"

row,Structure (SMILES),Potency
1,Cc1cc(C)c2[nH]c(=O)c(CN(Cc3ccco3)C(=O)c3cccs3)cc2c1,"inconclusive [inhibitor, full curve, poor fit]"
2,Cn1c(=O)[nH]c(=O)c2c1nc(N/N=C/C(Br)=C/c1ccccc1)n2CCO,"inconclusive [inhibitor, single point]"
3,CCOc1ccc(NC(=O)CN2C(=O)CCSc3ccc(S(=O)(=O)N4CCCC4)cc32)cc1,"inconclusive [inhibitor, partial curve, poor fit]"
4,COCCn1c(N)c(C(=O)Nc2sc3c(c2C(=O)OC)CCCC3)c2nc3ccccc3nc21,"inconclusive [inhibitor, partial curve, poor fit]"
5,Cc1cc2c(C)ccc(C)c2nc1SCC(=O)c1cccs1,"inconclusive [inhibitor, single point]"
6,COc1cc(NC(=O)CSc2nc(=O)n(CCN3CCOCC3)c3c2CCCC3)cc(OC)c1,"inconclusive [inhibitor, single point]"
7,NC(=O)OCC(O)COc1ccc(Cl)cc1 (stereo not given),inactive
8,O=C(N/N=C/c1cccs1)c1cncc(Br)c1,"inconclusive [inhibitor, partial curve, poor fit]"
9,O=C(N/N=C/c1cccs1)c1cc(C2CC2)nc2ccccc12,inactive
10,C/C(=N\NC(=O)C12CCC(C)(C(=O)O1)C2(C)C)c1ccccc1O (stereo not given),"inconclusive [inhibitor, partial curve]"
11,COc1ccc(C2SCC(=O)Nc3c2c(C)nn3C2CCOC(C)(C)C2)cc1 (stereo not given),inactive
12,Cc1ccc2cc(CN(C(=O)C3CCCO3)C3CCCCC3)c(=O)[nH]c2c1 (stereo not given),"inconclusive [inhibitor, partial curve]"
13,CCN(CC)CCNC(=O)CCCCn1c(=S)[nH]c2c([nH]c3ccc(OC)cc32)c1=O,active: 9.28 µM
14,CCOc1ccc(C(=O)Nc2cccc(-c3cc4ccccc4oc3=O)c2)cc1[N+](=O)[O-],"inconclusive [inhibitor, partial curve, poor fit]"
15,CCOP(=O)(c1ccc(N(C)C)cc1)C(O)c1c(Cl)cccc1Cl (stereo not given),"inconclusive [inhibitor, single point]"
16,CC(/C=C/c1ccco1)=N\NC(=O)c1cccc(Cl)c1,"inconclusive [inhibitor, single point]"
17,COc1cc2c(cc1OC)[C@@H](Cc1ccc(OCCC#N)cc1)N(C)CC2,inactive
18,CSc1ccccc1C(=O)Nc1ccc2c(c1)OCCO2,inactive
19,Nc1nonc1-n1nnc(C(=O)N/N=C/c2cccc(Cl)c2)c1-c1cccs1,active: 4.65 µM
20,C=CCn1c(C)c(C(C)=O)cc(NC(=O)c2ccccc2)c1=O,"inconclusive [inhibitor, single point]"
21,COc1ccc(CCNC(=O)CSc2nn3c(=O)c(C)nnc3s2)cc1OC,active: 5.22 µM
